This is one part of the list. Many values rest on one well or one pass, so single values are uncertain.
Experiments:
Test in all cases: cell count relative to DMSO control; melanoma cells; higher = more viable cells
Conditions in all cases: library dose: standard library concentration; 72 h
[1] = tested on: G361
[2] = tested on: IPC-298
[3] = tested on: IST-MEL1
[4] = tested on: LB2518-MEL
[5] = tested on: LOXIMVI
[6] = tested on: MEL-HO
[7] = tested on: MZ2-MEL
[8] = tested on: MeWo
[9] = tested on: RPMI7951
[10] = tested on: RVH-421
[11] = tested on: SkMel28
[12] = tested on: SkMel2
[13] = tested on: SkMel30
[14] = tested on: SkMel5
[15] = tested on: UACC257
[16] = tested on: UACC62
[17] = tested on: WM115
[18] = tested on: WM1716
[19] = tested on: WM1745
[20] = tested on: WM3526
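Also: cells treated in 1,536-well plates, then fixed and DAPI-stained, with nuclei counted from automated high-throughput microscope images.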

Row | Structure (SMILES) | cell count [1] [%] | cell count [2] [%] | cell count [3] [%] | cell count [4] [%] | cell count [5] [%] | cell count [6] [%] | cell count [7] [%] | cell count [8] [%] | cell count [9] [%] | cell count [10] [%] | cell count [11] [%] | cell count [12] [%] | cell count [13] [%] | cell count [14] [%] | cell count [15] [%] | cell count [16] [%] | cell count [17] [%] | cell count [18] [%] | cell count [19] [%] | cell count [20] [%]
1 | COc1cc2c(Oc3ccc4[nH]c(C)cc4c3F)ncnc2cc1OCCCN1CCCC1 [cediranib] + Cc1cc(SCc2sc(-c3ccc(C(F)(F)F)c(F)c3)nc2C)ccc1OCC(=O)O [GW0742] (first compound 2 µM, partner dose 10 µM) | 95.9 | 96 | 104 | 91.2 | 93.4 | 97.6 | 93.5 | 88.2 | 115 | 82 | 170 | 85.1 | 90.1 | 83.4 | 97.9 | 110 | 89.4 | 99.1 | 73 | 99.6
2 | Cn1nnc2c(C(N)=O)ncn2c1=O [temozolomide] + Cc1cc(SCc2sc(-c3ccc(C(F)(F)F)c(F)c3)nc2C)ccc1OCC(=O)O [GW0742] (first compound 10 µM, partner dose 10 µM) | 89 | 85 | 84.3 | 79.2 | 87.6 | 91.5 | 88 | 98 | 85 | 85.9 | 36.1 | 101 | 75.3 | 100 | 90.5 | 70.8 | 79.1 | 55.8 | 86.8 | 102
3 | CC[C@]1(O)C[C@H]2CN(CCc3c([nH]c4ccccc34)[C@@](C(=O)OC)(c3cc4c(cc3OC)N(C=O)[C@H]3[C@@](O)(C(=O)OC)[C@H](OC(C)=O)[C@]5(CC)C=CCN6CC[C@]43[C@@H]65)C2)C1 [vincristine] + N.N.[Cl][Pt][Cl] [cisplatin] (first compound 0.0005 µM, partner dose 8 µM) | 77.4 | 75.6 | 87.7 | 94.8 | 76.7 | 83.5 | 90.8 | 97.9 | 77.3 | 218 | 84 | 88.7 | 57.9 | 98.1 | 84.6 | 78.4 | 111 | 61.5 | 86.4 | 71.4
4 | Cc1cc(SCc2sc(-c3ccc(C(F)(F)F)c(F)c3)nc2C)ccc1OCC(=O)O + O=c1cc(-c2cccc3c2Sc2ccccc2S3)oc(N2CCOCC2)c1 [KU55933] (first compound 10 µM, partner dose 5 µM) | 73.9 | 77.7 | 85.8 | 94.5 | 99 | 67.5 | 84 | 86.6 | 78.4 | 108 | 74 | 97.5 | 96.4 | 91.5 | 110 | 90.3 | 85.9 | 99.2 | 76.3 | 72.1
5 | C[C@]1(c2nc3c(C(N)=O)cccc3[nH]2)CCCN1 [Veliparib] + O=C(Oc1ccc([N+](=O)[O-])cc1)N1CCC(C(O)(c2ccc3c(c2)OCO3)c2ccc3c(c2)OCO3)CC1 [JZL184] (first compound 7 µM, partner dose 5 µM) | 88.6 | 95.2 | 93.8 | 116 | 168 | 102 | 104 | 101 | 84.7 | 82.1 | 74.7 | 79.3 | 88.7 | 59.1 | 95.6 | 71 | 84.8 | 93.5 | 78.2 | 88.2
6 | COc1ccc2c(c1)CCC1C2CCC2(C)C(NCCCCCCN3C(=O)C=CC3=O)CCC12 (stereo not given) + Cc1cc(SCc2sc(-c3ccc(C(F)(F)F)c(F)c3)nc2C)ccc1OCC(=O)O [GW0742] (first compound 2 µM, partner dose 10 µM) | 91.1 | 79.2 | 90 | 118 | 143 | 98.6 | 74.7 | 59.3 | 22.4 | 77.7 | 81.9 | 93.2 | 87.1 | 72 | 88.5 | 76.8 | 91.8 | 74.1 | 95.1 | 101
7 | COC(=O)c1sccc1S(=O)(=O)Nc1ccc(Nc2ccccc2)cc1OC + Cc1cc(SCc2sc(-c3ccc(C(F)(F)F)c(F)c3)nc2C)ccc1OCC(=O)O [GW0742] (first compound 5 µM, partner dose 10 µM) | 88.2 | 88 | 97.5 | 97.7 | 125 | 87 | 79.9 | 102 | 87.1 | 106 | 70 | 88.1 | 100 | 84.3 | 82.9 | 85.5 | 90 | 101 | 75.3 | 94.5
8 | COc1ccc2c(c1)CCC1C2CCC2(C)C(NCCCCCCN3C(=O)C=CC3=O)CCC12 (stereo not given) + C/C(O)=C(\C#N)C(=O)Nc1cc(Br)ccc1Br [LFM-A13] (first compound 2 µM, partner dose 10 µM) | 69.6 | 92.1 | 95.4 | 111 | 79.2 | 86.7 | 79.4 | 61.2 | 20 | 83.4 | 65.7 | 101 | 76.7 | 53.6 | 86.7 | 66.2 | 98.1 | 83.8 | 88.7 | 84.2
9 | C[C@]1(O)C[C@@H](c2nc(-c3ccc4ccc(-c5ccccc5)nc4c3)c3c(N)nccn32)C1 + N.N.[Cl][Pt][Cl] [cisplatin] (first compound 2 µM, partner dose 8 µM) | 89 | 98 | 104 | 104 | 74.2 | 101 | 107 | 94.2 | 70.6 | 107 | 77.2 | 91.6 | 85.7 | 106 | 83 | 71.5 | 99.9 | 125 | 58.9 | 82.8
10 | O=C(Oc1ccc([N+](=O)[O-])cc1)N1CCC(C(O)(c2ccc3c(c2)OCO3)c2ccc3c(c2)OCO3)CC1 + CC(C)CCN1c2nc(Nc3cc(F)c(O)c(F)c3)ncc2N(C)C(=O)C1C [BID1870] (first compound 5 µM, partner dose 1 µM) | 92.1 | 87.8 | 101 | 134 | 93.1 | 79.1 | 116 | 78.8 | 96.2 | 82.8 | 83.4 | 82.5 | 97.4 | 76.2 | 90.6 | 75.9 | 105 | 94.3 | 93.2 | 75.1
11 | O=C(Oc1ccc([N+](=O)[O-])cc1)N1CCC(C(O)(c2ccc3c(c2)OCO3)c2ccc3c(c2)OCO3)CC1 + CCCCCCCCCCCC1=C(O)C(=O)C=C(O)C1=O [Embelin] (first compound 5 µM, partner dose 6 µM) | 60.9 | 90 | 60.2 | 99.1 | 84.8 | 73.5 | 96.8 | 96.4 | 65 | 61.9 | 135 | 93.3 | 89.8 | 91.3 | 85.7 | 94.1 | 93.1 | 98.2 | 75.9 | 88.2
12 | COC(=O)c1sccc1S(=O)(=O)Nc1ccc(Nc2ccccc2)cc1OC + O=C(Oc1ccc([N+](=O)[O-])cc1)N1CCC(C(O)(c2ccc3c(c2)OCO3)c2ccc3c(c2)OCO3)CC1 [JZL184] (first compound 5 µM, partner dose 5 µM) | 101 | 91.4 | 102 | 113 | 102 | 103 | 89.4 | 75.4 | 85.1 | 105 | 90.1 | 100 | 64.9 | 78.3 | 89.8 | 101 | 86.2 | 88.2 | 101 | 81.9
13 | C/C(O)=C(\C#N)C(=O)Nc1cc(Br)ccc1Br + O=c1cc(-c2cccc3c2Sc2ccccc2S3)oc(N2CCOCC2)c1 [KU55933] (first compound 10 µM, partner dose 5 µM) | 87.6 | 86.7 | 99.6 | 102 | 91 | 81.6 | 82.4 | 94.7 | 93.4 | 126 | 86.6 | 90.1 | 84.6 | 92.7 | 87.6 | 89.4 | 103 | 100 | 87.7 | 91
14 | Cc1cc(SCc2sc(-c3ccc(C(F)(F)F)c(F)c3)nc2C)ccc1OCC(=O)O + CCCCCCCCCCCC1=C(O)C(=O)C=C(O)C1=O [Embelin] (first compound 10 µM, partner dose 6 µM) | 81.8 | 64.9 | 70.6 | 70.4 | 140 | 76 | 79 | 110 | 79.9 | 77.3 | 79.8 | 85.3 | 102 | 109 | 88.9 | 106 | 84.9 | 71.1 | 72.8 | 100
15 | CC1(C)NC(=O)N(c2ccc([N+](=O)[O-])c(C(F)(F)F)c2)C1=O [nilutamide] + Cc1cc(SCc2sc(-c3ccc(C(F)(F)F)c(F)c3)nc2C)ccc1OCC(=O)O [GW0742] (first compound 5 µM, partner dose 10 µM) | 93.6 | 109 | 90.3 | 101 | 98.7 | 86 | 102 | 88.4 | 86.9 | 110 | 85.9 | 102 | 84.2 | 86 | 99.5 | 83.1 | 86 | 107 | 99.5 | 86.8
16 | CNC(=O)c1cc(Oc2ccc(NC(=O)Nc3ccc(Cl)c(C(F)(F)F)c3)cc2)ccn1 [sorafenib] + C[As](C)SC[C@H](NC(=O)CC[C@H](N)C(=O)O)C(=O)NCC(=O)O [Darinaparsin] (first compound 2 µM, partner dose 2 µM) | 59.9 | 71.8 | 87.5 | 72.5 | 104 | 72.9 | 73.8 | 63.3 | 95.1 | 36.6 | 70 | 77.1 | 86.1 | 44.4 | 87.9 | 77.6 | 56.2 | 74 | 59.3 | 59.4
17 | C/C(O)=C(\C#N)C(=O)Nc1cc(Br)ccc1Br + Cc1cc([N+](=O)[O-])ccc1NS(=O)(=O)c1cc(Cl)ccc1Cl [FH535] (first compound 10 µM, partner dose 5 µM) | 32.8 | 39.9 | 57.4 | 73.7 | 53.4 | 44 | 55.1 | 64.8 | 81.1 | 54.3 | 54.7 | 70.6 | 78.4 | 42.5 | 65.1 | 71 | 69.4 | 67.3 | 71.3 | 64.8

Reference: the supplement of paper PMC4604168 (melanoma cell lines)
